Results from publication PMC4336329 (PLoS ONE, 2015).
The campaign covered roughly 310,000 compounds. About 14,000 (4.5%) showed an effect of 50% or more. Effects have a minus sign here. The list shows a part of the results.

These compounds were tested against human ether-à-go-go-related gene (hERG) potassium channel (human, UniProt Q12809) (assay: primary screen, population patch clamp on CHO cells stably expressing hERG).
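Further: peak tail current of the secondary pulse compared with the same well before compound.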

Chain of human ether-à-go-go-related gene (hERG) potassium channel (Q12809 whole entry, looked up): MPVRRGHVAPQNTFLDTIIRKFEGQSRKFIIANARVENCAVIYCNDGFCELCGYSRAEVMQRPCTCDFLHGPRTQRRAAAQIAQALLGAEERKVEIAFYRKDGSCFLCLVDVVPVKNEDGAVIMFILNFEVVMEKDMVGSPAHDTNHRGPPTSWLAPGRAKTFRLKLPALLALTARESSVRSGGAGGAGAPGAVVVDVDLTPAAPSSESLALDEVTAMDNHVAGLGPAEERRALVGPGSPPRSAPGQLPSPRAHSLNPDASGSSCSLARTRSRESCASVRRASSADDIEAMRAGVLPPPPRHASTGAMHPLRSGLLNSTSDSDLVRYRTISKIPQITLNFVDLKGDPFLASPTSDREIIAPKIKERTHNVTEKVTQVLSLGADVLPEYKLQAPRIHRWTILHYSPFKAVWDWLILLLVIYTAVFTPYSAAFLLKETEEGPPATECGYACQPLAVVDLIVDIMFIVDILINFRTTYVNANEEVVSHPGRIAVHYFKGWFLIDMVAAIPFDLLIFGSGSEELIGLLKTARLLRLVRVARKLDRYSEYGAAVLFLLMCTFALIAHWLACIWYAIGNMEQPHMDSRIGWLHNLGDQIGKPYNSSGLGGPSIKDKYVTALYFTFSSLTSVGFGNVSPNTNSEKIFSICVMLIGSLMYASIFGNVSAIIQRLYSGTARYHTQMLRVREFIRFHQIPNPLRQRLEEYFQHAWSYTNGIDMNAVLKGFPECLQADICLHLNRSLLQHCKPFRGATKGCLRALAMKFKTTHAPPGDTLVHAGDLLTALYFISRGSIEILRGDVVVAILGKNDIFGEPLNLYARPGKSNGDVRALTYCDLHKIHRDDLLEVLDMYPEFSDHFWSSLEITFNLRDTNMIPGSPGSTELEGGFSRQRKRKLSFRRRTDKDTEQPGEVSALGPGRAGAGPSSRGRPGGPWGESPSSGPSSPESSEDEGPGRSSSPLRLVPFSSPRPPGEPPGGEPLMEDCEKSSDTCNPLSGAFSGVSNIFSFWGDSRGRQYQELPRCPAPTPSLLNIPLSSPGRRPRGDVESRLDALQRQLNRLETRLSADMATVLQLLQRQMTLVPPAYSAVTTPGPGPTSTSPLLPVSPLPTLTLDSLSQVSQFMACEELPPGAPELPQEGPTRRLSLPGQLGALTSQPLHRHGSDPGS

Going from `O=C(NCCc1ccc(F)cc1)c1cccs1` to `NNC(=O)/C(=C\c1ccc(Br)cc1)NC(=O)c1cccs1`, the “hERG current change (%, negative = inhibition) at 10uM” value falls from 10.4% to -14.3%.

First: COC(=O)c1c(-c2ccc(F)cc2)csc1NC(=O)c1ccco1
Second: COC(=O)c1sc(-c2ccccc2)cc1NC(C)=O
The “hERG current change (%, negative = inhibition) at 10uM” value of the first is lower: 22.9% for the first, 23.1% for the second.

Going from `O=C(CCCSc1nc2ccccc2s1)NCc1ccc2c(c1)OCO2` to `N#Cc1c(N)nc(SCC(=O)NCCc2ccccc2)c(C#N)c1-c1cccs1`, the “hERG current change (%, negative = inhibition) at 10uM” value rises from -18.5% to 16.6%.

First: COc1ccccc1C1=NOC(C)(c2sc(-c3ccc(Cl)cc3)nc2C)C1 (stereo not drawn)
Second: CCOc1ccccc1NC(=O)Cn1nnc(-c2ccc(OCC)c(OCC)c2)n1
The “hERG current change (%, negative = inhibition) at 10uM” value of the first is higher: 15% for the first, -8.29% for the second.

Compared with `Cc1ccc(C)c(S(=O)(=O)N2CCCC2CNC(=O)C(=O)NCc2ccccc2)c1` (stereo not drawn), `CCS(=O)(=O)N1CCN(c2ccc([N+](=O)[O-])c(NCc3ccccc3)c2)CC1` is higher in “hERG current change (%, negative = inhibition) at 10uM” value: -48.3% for the first, -10.8% for the second.

First: CC1(C)C(=O)OC(C(=O)c2ccc(C(C)(C)C)cc2)C(C)(C)C1=O (stereo not drawn)
Second: Cc1cccc(OCCNc2nc3c(c(=O)n(C)c(=O)n3C)n2C)c1
The “hERG current change (%, negative = inhibition) at 10uM” value of the first is higher: 8.26% for the first, 2.15% for the second.

First: CC(=O)Nc1ccc(S(=O)(=O)N2CCN(c3ccccn3)CC2)cc1
Second: CCN1CCN(c2ccc(S(=O)(=O)N3CCOCC3)cc2NC(=O)c2ccc(C)c(C)c2)CC1
The “hERG current change (%, negative = inhibition) at 10uM” value of the first is higher: -3.36% for the first, -40% for the second.

First: O=C(CSc1nnc(-c2ccccc2)o1)N1CCOCC1
Second: O=C(c1ccc2nc(Cc3cccc(Cl)c3)oc2c1)N1CCC(O)CC1
The “hERG current change (%, negative = inhibition) at 10uM” value of the first is higher: 6.37% for the first, 4.01% for the second.

First: CCOC(=O)Cn1nc(C)c(NC(=O)COc2ccc(F)cc2F)c1C
Second: CCOc1ccc(NC(=O)CN(C)C(=O)Cn2cnc3c2c(=O)n(C)c(=O)n3C)cc1OCC
The “hERG current change (%, negative = inhibition) at 10uM” value of the first is higher: 12% for the first, 5.62% for the second.

Compared with `CC(=O)Nc1ccc(SCC(=O)c2cc(C)n(-c3ccccc3)c2C)cc1`, `Cc1ccccc1NC(=O)C(C)c1cccc(C(=O)c2ccccc2)c1` (stereo not drawn) is higher in “hERG current change (%, negative = inhibition) at 10uM” value: -7.38% for the first, 0.0553% for the second.

Compared with `CCCN(C(=O)CSCc1ccccc1C)c1c(N)n(Cc2ccccc2)c(=O)[nH]c1=O`, `CN(C(=O)CN1CCN(c2ccccc2F)CC1)C1CCCc2ccccc21` (stereo not drawn) is lower in “hERG current change (%, negative = inhibition) at 10uM” value: -4.64% for the first, -18.7% for the second.

Going from `CCCCc1cc(=O)oc2cc(OS(C)(=O)=O)ccc12` to `C=CCNc1nc(Cl)nc(Nc2ccc(OC)cc2OC)n1`, the “hERG current change (%, negative = inhibition) at 10uM” value rises from -38.3% to 0.114%.
